# Data taken from the supplement of paper PMC3334620.
# In all, about 33,000 sequences were measured (“E-score (-0.5 to 0.5)”: median about -0.035, highest 2% from about 0.34 on). This is one part of the list.
# Biological target: T1, Mot3 (UniProt P54785)
# T1 sequence: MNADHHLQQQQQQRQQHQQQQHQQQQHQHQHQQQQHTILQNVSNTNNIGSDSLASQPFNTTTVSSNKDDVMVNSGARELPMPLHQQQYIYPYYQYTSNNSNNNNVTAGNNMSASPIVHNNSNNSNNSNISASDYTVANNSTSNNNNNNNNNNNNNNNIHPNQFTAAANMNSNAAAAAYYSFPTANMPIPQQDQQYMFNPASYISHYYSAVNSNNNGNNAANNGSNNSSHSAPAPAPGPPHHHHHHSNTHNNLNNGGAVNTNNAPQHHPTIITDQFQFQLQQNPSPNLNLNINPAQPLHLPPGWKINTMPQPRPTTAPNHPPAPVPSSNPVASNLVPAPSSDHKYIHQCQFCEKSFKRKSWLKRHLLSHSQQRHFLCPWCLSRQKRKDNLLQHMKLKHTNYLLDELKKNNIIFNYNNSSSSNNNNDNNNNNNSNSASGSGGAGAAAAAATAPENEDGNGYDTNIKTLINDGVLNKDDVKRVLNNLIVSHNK
# Assay: PBM E-score (8-mer binding enrichment) (E-score (-0.5 to 0.5)); higher = stronger / more preferred TF binding; most listed sequences are background and not binding sites
# Conditions: protein concentration: 200 nM; construct: GST-full length
# Outline: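 Yeast transcription factors, full-length or as DNA-binding domains, were expressed with a GST tag using PURExpress in vitro transcription/translation. At about 100-200 nM they were applied to universal all-10-mer Agilent arrays, double-stranded by primer extension on fresh or once-stripped slides. Fluorescent anti-GST detected bound protein, and masliner normalised the scans. E-scores for ungapped eight-base words, pooled with reverse complements, came from the Universal PBM Analysis Suite.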
row,Sequence,PBM E-score
1,CGTGCCCA,0.355
2,TACGGAAA,0.0699
3,AACATCAG,0.232
4,CACGGCAA,0.108
5,CACAGGGC,0.075
6,ACTAAGCG,-0.0457
7,ATCGCAGA,-0.0933
8,GACTACAC,0.295
9,ATCGTTTG,-0.0574
10,AATGATAG,0.0197
11,GCCAAAGC,-0.211
12,ACCCTAAC,-0.0368
13,GTGAGTGA,-0.195
14,CAGATTCC,-0.124
15,CCGTTAGC,-0.267
16,CGCTAATC,-0.107
17,AAGCAACT,-0.0233
18,CTATCGCC,-0.129
19,AACCTCCC,-0.0647
20,CGGTGATA,-0.108
21,GGAATTTA,0.00634
22,AAAAAACG,0.0973

row,Sequence,PBM E-score
1,GTGGATCA,-0.161
2,AGGCGTTG,0.185
3,ACACCTCC,-0.084
4,ACCCTCGC,-0.253
5,CATGAGAG,-0.0464
6,ATACAATA,0.119
7,GCGGATGA,-0.199
8,CTGATGAC,-0.0806
9,ACCAATCT,-0.145
10,GCCGGACC,-0.0435
11,CTTGTATC,0.176
12,CACCTCAC,0.00629
13,ATCAGAAG,-0.0998
14,AGGCAGCG,0.175
15,CAAGGAAG,-0.00272
16,GAGATACC,-0.0433
17,GTAGGGCA,0.117
18,ATCCCTTG,-0.0314
19,TGAGTGAA,-0.143
20,GATGTCCA,-0.112
21,AAATCGTG,0.263
22,CTGACCTC,-0.3

row,Sequence,PBM E-score
1,AGTAGTTG,0.0131
2,TACCGCGA,-0.0474
3,GTGAAAGA,0.0325
4,AGGGTCTA,-0.153
5,GAATATGA,-0.0132
6,GCAGGCCA,0.169
7,CCCACGGC,-0.309
8,ATGCACGG,-0.116
9,CCCAAACG,-0.209
10,GAAAGAGC,-0.103
11,ACGGCGCA,-0.142
12,CGAAAGAC,-0.0599
13,GGTGTAAC,0.164
14,ATCCCACA,-0.23
15,ATTCAGCC,-0.0435
16,ACGGGGTC,-0.29
17,CTTTTACA,0.345
18,ACATGAGG,0.196
19,CATTAGTC,-0.252
20,ACCGTTGG,-0.129
21,AAGGCGGA,-0.0743
22,CGTCGACG,-0.3

row,Sequence,PBM E-score
1,GTAGTTGA,0.101
2,AAGGGAGG,-0.08
3,AGTGCATC,-0.111
4,ACAACCCA,0.145
5,GTCTACTA,0.0859
6,ACAACGGC,-0.0371
7,ATGATGAG,-0.104
8,CAGCACGC,-0.126
9,CGCACCCA,-0.22
10,ACGTTATA,0.254
11,CCAGGATA,-0.121
12,CATGCGGA,-0.11
13,ACACACAG,0.324
14,AGTGCACC,-0.116
15,CGCTTCAG,-0.0319
16,AAATGACG,0.0556
17,CGAGGTAG,-0.318
18,AACCTGAG,-0.0479
19,CTCAACGC,-0.0236
20,GCACCTCA,0.184
